# Assay results reported in patent US12583836B2 (Anaxis Pharma Pty Ltd, priority 2020, dated 2026).
# pIC50: −log10 of the molar value.
# Tests used:
# [1] = test system: U937 human histiocytic leukemia cell line; test: Inhibition of TSQ induced necroptosis, 384 well plate format (CellTitre-Glo); settings: Homo sapiens, U-937; U937 cells, TSQ cocktail (TNF, Smac mimetic, Q-VD-OPh), CelltiterGlo; read-out: Inhibition of TSQ-induced necroptosis (IC50 cell-based assay)
# Method: […] ASSAY: Screening compounds for inhibition of TSQ induced necroptosis, 384 well plate format.
# Cell Line ID: U937 human histiocytic leukemia cell line.
# Cell Concentration (cells/well): Final cell density is 20000 cells per well.
# Cell growth medium: HT-RPMI medium+7.4% Fetal Bovine Serum (FBS). Cells are cultured in Corning 150 cm^2 tissue culture flasks with vented caps at 37° C./5% CO2.
# Incubation: Plates were incubated at 37° C./5% CO2 in a humidified incubator for 48 hours following addition of compounds and death stimuli (TSQ cocktail).
# Compound concentration: 36 μM starting concentration, 1:3 dilution, 10 point
# DMSO final concentration (% v/v): 0.3%.
# Compounds in TSQ cocktail (T: TNF; S: Smac mimetic; Q: Q-VD-OPh) and their final concentrations:
# hTNF-Fc (100 ng/ml)—produced by standard procedures as shown in Bossen et al., J Biol Chem, 2006, 281(20), 13964-13971.
# Compound A (500 nM)—Smac mimetic, Tetralogic and SYNthesis med chem
# Q-VD-OPh (10 μM)—MP Biomedicals
# The cellular assay was carried out according to the following steps: • 1. Each well was prepared by sequential addition of: • a. DMSO (control; columns 1-2 and 23-24) or compound in DMSO—addition was performed using acoustic transfer of nl volumes of stock compound to give final test concentrations of 36, 12, 4, 1.3, 0.44, 0.148, 0.049, 0.016, 0.005 and 0.002 μM. All wells were backfilled with DMSO to a final total volume in the well of 100 nl. • b. Following compound/DMSO addition in step (a), 40 μL of cell suspension (5×10^5 cells/mL) was added to provide a final cell concentration of 20,000 cells per well, and • c. Following cell addition in step (b), 10 μL of 5×TSQ cocktail (except to positive controls; columns 1 and 23) was added to each well. • 2. After 48 hours, plate was removed from the 37° C. incubator and equilibrated to room temperature for 45 minutes. • 3. 15 μL of room temperature CellTitre-Glo2™ (Promega™) was added to each well. • 4. Shook plates for 2 minutes (˜600 rpm) and incubated at room temperature for 15 minutes to allow signal to stabilise. • 5. Read luminescence readout on a plate reader. Analysis:
# Percent viability was calculated for each compound according to equation (2):
# [formula] • wherein • RawData is the readout of any cell containing a compound of the invention • TA is the total activity provided by the luminescence readout from DMSO only wells (columns 2 and 24)=100% viability • NSA is the non-specific activity provided by DMSO+TSQ wells (columns 1 and 23)=0% viability
# Curve fitting: 10-point titration curves are fitted with the 4-parameter logistic nonlinear regression model and the IC50 reported is the inflection point of the curve.
# Analysis: Data was loaded into Dotmatics™ and visualised using the Tibco® Spotfire™ software. 10 points titration curves were fitted with the 4-parameter logistic nonlinear regression model and the IC50 reported reflect the inflection point of the curve for curve fitting.
# Assay involving the TSQ cocktail (T: TNF; S: Smac mimetic; Q: Q-VD-OPh): TSQ treatment ensures that cells specifically undergo necroptotic cell death. TNF activates the TNF receptor, Smac mimetic directs the signal away from proinflammatory signaling and toward the RIP1/RIP3-mediated cell death pathways, and Q-VD-OPh ensures that the apoptotic response is blocked leaving only the programmed necrosis response. The compounds' activity (solution in DMSO) tested in this TSQ-induced assay was evaluated by determining the number of viable cells in culture by measuring the amount of ATP present as measured by CelltiterGlo.
# U937 cells = test: Counter screen: cell viability without the TSQ cocktail (CelltiterGlo); set-up: species or system human; settings: Homo sapiens, U-937, cell viability by CelltiterGlo, read-out: Off-target effect (IC50 cell-based assay)
# Method: Counter screen: In parallel, all compounds were tested for their ability to affect cell viability. The same U937 cells were treated with compound in DMSO without the TSQ cocktail. This counter screen enabled evaluation of off-target effects. In this case, cell viability was measured by CelltiterGlo.
SMILES,pIC50 [1],pIC50 (U937 cells)
"Cc1cc(Nc2[nH]nc(-c3ccc(NS(=O)(=O)C(F)F)c(O[C@@H](C)c4ccc(F)cc4)c3)c2C(N)=O)on1 [Compound 302, (S)-3-(4-((difluoromethyl)sulfonamido)-3-(1-(4-fluorophenyl)ethoxy)phenyl)-5-((3-methylisoxazol-5-yl)amino)-1H-pyrazole-4-carboxamide]",6.00 to 8.00,< 4.52
"C[C@H](Oc1cc(-c2n[nH]c(Nc3ccccn3)c2C(N)=O)ccc1NS(=O)(=O)CC(F)(F)F)c1ccc(F)cc1 [Compound 154, (S)-3-(3-(1-(4-fluorophenyl)ethoxy)-4-((2,2,2-trifluoroethyl)sulfonamido)phenyl)-5-(pyridine-2-ylamino)-1H-pyrazole-4-carboxamide]",6.00 to 8.00,4.52 to 6.00
"CCS(=O)(=O)Nc1ccc(-c2c(C(N)=O)c(Nc3cnccn3)nn2C)cc1 [Compound 222, 5-(4-(ethylsulfonamido)phenyl)-1-methyl-3-(pyrazin-2-ylamino)-1H-pyrazole-4-carboxamide]",4.52 to 6.00,< 4.52
"C[C@H](Oc1cc(-c2n[nH]c(Nc3cnccn3)c2C(N)=O)ccc1NS(=O)(=O)C(F)F)c1ncco1 (single isomer, unassigned) [Compound 279]",6.00 to 8.00,< 4.52
"C[C@H](Oc1cc(-c2n[nH]c(Nc3cc(C4(C)COC4)on3)c2C(N)=O)ccc1NS(=O)(=O)C(F)F)c1ccc(F)cc1 [Compound 292, (S)-3-(4-((difluoromethyl)sulfonamido)-3-(1-(4-fluorophenyl)ethoxy)phenyl)-5-((5-(3-methyloxetan-3-yl)isoxazol-3-yl)amino)-1H-pyrazole-4-carboxamide]",6.00 to 8.00,< 4.52
"NC(=O)c1c(-c2ccc(NS(=O)(=O)C(F)F)c(OCc3nccs3)c2)n[nH]c1Nc1cnccn1 [Compound 275, 3-(4-((difluoromethyl)sulfonamido)-3-(thiazol-2-ylmethoxy)phenyl)-5-(pyrazin-2-ylamino)-1H-pyrazole-4-carboxamide]",4.52 to 6.00,< 4.52
"C[C@H](Oc1cc(-c2n[nH]c(Nc3cc4n(n3)CCCN(C)C4)c2C(N)=O)ccc1NS(=O)(=O)C(F)F)c1ccc(F)cc1 [Compound 318, (S)-3-(4-((difluoromethyl)sulfonamido)-3-(1-(4-fluorophenyl)ethoxy)phenyl)-5-((5-methyl-5,6,7,8-tetrahydro-4H-pyrazolo[1,5-a][1,4]diazepin-2-yl)amino)-1H-pyrazole-4-carboxamide]",> 8.00,< 4.52
"C[C@@H](Oc1cc(-c2n[nH]c(Nc3cnccn3)c2C(N)=O)ccc1NS(=O)(=O)C(F)F)c1ccc(F)cc1 [Compound 271, (R)-3-(4-((difluoromethyl)sulfonamido)-3-(1-(4-fluorophenyl)ethoxy)phenyl)-5-(pyrazin-2-ylamino)-1H-pyrazole-4-carboxamide]",6.00 to 8.00,< 4.52
"NC(=O)c1c(-c2ccc(NS(=O)(=O)C(F)F)c(OCc3ccc(F)cc3)c2)n[nH]c1Nc1ccc(C(F)(F)F)nc1 [Compound 188, 3-(4-((difluoromethyl)sulfonamido)-3-((4-fluorobenzyl)oxy)phenyl)-5-((6-(trifluoromethyl)pyridine-3-yl)amino)-1H-pyrazole-4-carboxamide]",6.00 to 8.00,< 4.52
"C[C@H](Oc1cc(-c2n[nH]c(Nc3cc(C4(C)CC4)on3)c2C(N)=O)ccc1NS(=O)(=O)C(F)F)c1ccc(F)cc1 [Compound 276, (S)-3-(4-((difluoromethyl)sulfonamido)-3-(1-(4-fluorophenyl)ethoxy)phenyl)-5-((5-(1-methylcyclopropyl)isoxazol-3-yl)amino)-1H-pyrazole-4-carboxamide]",> 8.00,4.52 to 6.00
"Cc1nc(Nc2[nH]nc(-c3ccc(NS(=O)(=O)C(F)F)c(O[C@@H](C)c4ccc(F)cc4)c3)c2C(N)=O)sc1C [Compound 284, (S)-3-(4-((difluoromethyl)sulfonamido)-3-(1-(4-fluorophenyl)ethoxy)phenyl)-5-((4,5-dimethylthiazol-2-yl)amino)-1H-pyrazole-4-carboxamide]",6.00 to 8.00,< 4.52
"C[C@H](Oc1cc(-c2n[nH]c(Nc3ccccn3)c2C(N)=O)ccc1NS(=O)(=O)C(F)F)c1ccc(F)cc1 [Compound 260, 3-[4-(difluoromethanesulfonamido)-3-[(1S)-1-(4-fluorophenyl)ethoxy]phenyl]-5-[(pyridin-2-yl)amino]-1H-pyrazole-4-carboxamide]",> 8.00,< 4.52
"COCC(C)(C)c1cc(Nc2[nH]nc(-c3ccc(NS(=O)(=O)C(F)F)c(O[C@@H](C)c4ccc(F)cc4)c3)c2C(N)=O)no1 [Compound 288, (S)-3-(4-((difluoromethyl)sulfonamido)-3-(1-(4-fluorophenyl)ethoxy)phenyl)-5-((5-(1-methoxy-2-methylpropan-2-yl)isoxazol-3-yl)amino)-1H-pyrazole-4-carboxamide]",> 8.00,< 4.52
"COC[C@H](Oc1cc(-c2n[nH]c(Nc3cc(C)on3)c2C(N)=O)ccc1NS(=O)(=O)C(F)F)c1ccc(F)cc1 (single isomer, unassigned) [Compound 299]",> 8.00,< 4.52
"CCS(=O)(=O)Nc1ccc(-c2n[nH]c(Nc3cc(C)on3)c2C(N)=O)cc1O[C@@H](C)c1ccc(F)cc1 [Compound 317, (S)-3-(4-(ethylsulfonamido)-3-(1-(4-fluorophenyl)ethoxy)phenyl)-5-((5-methylisoxazol-3-yl)amino)-1H-pyrazole-4-carboxamide]",6.00 to 8.00,4.52 to 6.00
"COc1ccc(Nc2[nH]nc(-c3ccc(NS(=O)(=O)C(F)F)c(OCc4ccc(F)cc4)c3)c2C(N)=O)cn1 [Compound 196, 3-(4-((difluoromethyl)sulfonamido)-3-((4-fluorobenzyl)oxy)phenyl)-5-((6-methoxypyridin-3-yl)amino)-1H-pyrazole-4-carboxamide]",6.00 to 8.00,< 4.52
"COc1cnc(Nc2[nH]nc(-c3ccc(NS(=O)(=O)C(F)F)c(OCc4ccc(F)cc4)c3)c2C(N)=O)cn1 [Compound 191, 3-(4-((difluoromethyl)sulfonamido)-3-((4-fluorobenzyl)oxy)phenyl)-5-((5-methoxypyrazin-2-yl)amino)-1H-pyrazole-4-carboxamide]",6.00 to 8.00,< 4.52
Cc1cn(C)nc1Nc1[nH]nc(-c2ccc(NS(=O)(=O)C(F)F)c(O[C@@H](C)c3ccc(F)cc3)c2)c1C(N)=O [Compound 286],4.52 to 6.00,< 4.52
"C[C@H](Oc1cc(-c2n[nH]c(Nc3cc(C(F)(F)F)n(C)n3)c2C(N)=O)ccc1NS(=O)(=O)C(F)F)c1ccc(F)cc1 [Compound 277, (S)-3-(4-((difluoromethyl)sulfonamido)-3-(1-(4-fluorophenyl)ethoxy)phenyl)-5-((1-methyl-5-(trifluoromethyl)-1H-pyrazol-3-yl)amino)-1H-pyrazole-4-carboxamide]",> 8.00,< 4.52
"COCC(Oc1cc(-c2n[nH]c(Nc3cc(C)on3)c2C(N)=O)ccc1NS(=O)(=O)C(F)F)c1ccc(F)cc1 (racemic) [Compound 298, 3-(4-((difluoromethyl)sulfonamido)-3-(1-(4-fluorophenyl)-2-methoxyethoxy)phenyl)-5-((5-methylisoxazol-3-yl)amino)-1H-pyrazole-4-carboxamide]",–,< 4.52
